Source: the supplement of paper PMC3334620
In all, about 33,000 sequences were measured (“E-score (-0.5 to 0.5)”: median about -0.035, highest 2% from about 0.34 on). This is one part of the list.

Molecular target: T1, Mot3 (UniProt P54785)
T1 sequence: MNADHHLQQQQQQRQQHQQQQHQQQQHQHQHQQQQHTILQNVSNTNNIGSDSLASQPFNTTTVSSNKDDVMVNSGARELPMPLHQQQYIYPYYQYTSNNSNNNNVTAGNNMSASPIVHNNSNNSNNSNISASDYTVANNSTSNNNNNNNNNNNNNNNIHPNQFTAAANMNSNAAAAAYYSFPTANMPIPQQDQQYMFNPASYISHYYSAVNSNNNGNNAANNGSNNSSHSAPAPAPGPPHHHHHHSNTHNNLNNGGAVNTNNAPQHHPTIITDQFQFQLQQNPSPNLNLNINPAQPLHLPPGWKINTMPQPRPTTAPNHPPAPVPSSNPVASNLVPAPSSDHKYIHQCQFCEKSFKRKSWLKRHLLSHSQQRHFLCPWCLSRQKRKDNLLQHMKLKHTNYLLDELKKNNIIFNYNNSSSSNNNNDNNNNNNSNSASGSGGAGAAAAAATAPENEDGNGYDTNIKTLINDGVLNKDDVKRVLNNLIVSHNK
Test: PBM E-score (8-mer binding enrichment) (E-score (-0.5 to 0.5)); higher = stronger / more preferred TF binding; most listed sequences are background and not binding sites
Conditions: protein concentration: 200 nM; construct: GST-full length
Method: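 Universal 'all 10-mer' protein binding microarrays (Agilent AMADID 015681) probed with GST-tagged S. cerevisiae TFs (full-length or DBD) made by in vitro transcription/translation (PURExpress), about 100-200 nM. Bound TF was detected with fluorescent anti-GST. Each ungapped 8-mer (which stands for itself and its reverse complement) is scored by the PBM enrichment score (E-score), a modified Wilcoxon-Mann-Whitney statistic from -0.5 to +0.5, computed with the Universal PBM Analysis Suite. Scale: above 0.35 generally sequence-specific binding.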

| Sequence | PBM E-score |
| --- | --- |
| CATTGTCC | 0.0141 |
| ACATCGTC | 0.0483 |
| AATACTTC | -0.00018 |
| CGTAACCC | -0.0844 |
| CGATGAAA | 0.0797 |
| AGTAAACG | 0.112 |
| AGATGCCT | 0.331 |
| CAAATCAC | -0.148 |
| CATATGGG | -0.138 |
| GAAGAGAA | -0.0238 |
| ATAGGAGC | 0.0425 |
| AATTTCGA | 0.0443 |
| TATCTGAA | -0.103 |
| CTCGACCC | -0.0975 |
| AAGACGGA | -0.226 |
| AAAAACCG | 0.0673 |
| TGCAGGAA | 0.443 |
| CCTAATTC | 0.0397 |
| ATAGGCTA | 0.0381 |
| CTAGACAC | 0.0958 |
| GTAGATTA | 0.269 |
| CAACTTTC | 0.0699 |
| GAGAGGTA | -0.035 |
| CGGTGCAG | -0.0468 |
| ACCTCTAC | 0.0723 |

| Sequence | PBM E-score |
| --- | --- |
| GGACCCCA | -0.102 |
| GTTAACAA | 0.308 |
| CTCTTTGC | -0.0152 |
| AACAGTTC | -0.0284 |
| CTAACACA | 0.313 |
| CCCGAGCC | -0.0593 |
| CCACTACC | -0.13 |
| CCTCCGAC | -0.227 |
| GGAGCGCC | -0.237 |
| CTATTATA | 0.148 |
| ATGTTAGA | 0.284 |
| TATTGGCA | 0.0112 |
| CACTAGGA | -0.185 |
| AAGCACTA | 0.0213 |
| AACTACGA | -0.024 |
| TCGCCCCA | -0.213 |
| GCTCCTTA | -0.0544 |
| GTTTTAGA | 0.134 |
| CCTAAAGG | 0.137 |
| AGCTGCAG | -0.215 |
| ATCACTCG | -0.025 |
| CCAGGATC | -0.17 |
| AGCAGGTC | -0.0131 |
| AGACTGCA | -0.185 |
| AACAGGAA | 0.416 |

| Sequence | PBM E-score |
| --- | --- |
| CCCAAATC | -0.19 |
| CCAGTCCA | -0.21 |
| CATCTGTC | -0.359 |
| CCACGGGC | -0.226 |
| AGATTAAC | 0.0852 |
| ATACCAGG | -0.148 |
| ACCGCAGC | -0.124 |
| GTTTAAGA | -0.0499 |
| ACGCAGAA | -0.0612 |
| ACAATTGA | 0.151 |
| CCCGCTCG | -0.291 |
| CTCTCAGC | -0.147 |
| AGTTTGAA | 0.0908 |
| CCTTACCG | 0.0983 |
| ATATTGTA | 0.0434 |
| AGCATGCA | 0.0082 |
| AGACACCT | -0.0314 |
| CACTAATA | 0.149 |
| CTCAAGAG | -0.187 |
| AGCTCTAA | -0.211 |
| GTATTGTA | 0.297 |
| TAGGATGA | -0.156 |
| ATAGTTAG | -0.179 |
| ATGTAGAC | 0.287 |
| CATCGATG | 0.0376 |

| Sequence | PBM E-score |
| --- | --- |
| AAGCCAAG | -0.119 |
| ATAGTACG | -0.0583 |
| ATTGGACA | -0.0877 |
| CAATGATC | -0.147 |
| GGGCTACC | -0.337 |
| CTGCGACA | -0.0745 |
| CACACGGA | 0.0661 |
| ACCATAGC | -0.322 |
| AAAAGCAC | -0.103 |
| ACACGTTA | 0.345 |
| AAAAATTC | 0.138 |
| CACCTCCA | -0.138 |
| CACGTGCG | 0.206 |
| ATTAGCCG | -0.128 |
| CTTGTTGC | 0.188 |
| TAACAACA | 0.314 |
| AAATTTGC | 0.00237 |
| AAATACTA | 0.0828 |
| ATTGACAA | 0.145 |
| TATACCGA | -0.0353 |
| CCAGCAAA | -0.216 |
| AAGCCTGC | 0.12 |
| CACGTAAG | 0.204 |
| CCGCTGTC | -0.232 |
| ACATTGTC | 0.144 |

| Sequence | PBM E-score |
| --- | --- |
| AAACCCAC | -0.0258 |
| CGAGTCCC | -0.229 |
| CAATAGGG | 0.0283 |
| ACCTAGCG | 0.0407 |
| AGGGGCGG | -0.279 |
| ATAGCTGG | -0.242 |
| CGTATGAC | 0.146 |
| CATGGGTA | 0.0164 |
| ATAATCAG | 0.13 |
| GAGGACCC | -0.265 |
| GATGAAGC | -0.224 |
| GGCTCGAA | 0.00294 |
| TCTACCCA | -0.077 |
| GTCTGGTA | -0.209 |
| AACGTTCA | -0.00282 |
| ATCAAAAT | 0.0437 |
| GGTAGGAA | 0.313 |
| AATACTAA | 0.00861 |
| CCAAGAAA | 0.0226 |
| TGCACGCA | -0.0502 |
| CATGCGTA | 0.324 |
| AGGGCATC | -0.163 |
| CGCTTAAG | -0.0278 |
| AAACAGAC | 0.0793 |
| GGTGAATA | -0.242 |

| Sequence | PBM E-score |
| --- | --- |
| ACGGACTA | 0.0015 |
| CCGTCGCC | -0.133 |
| ATCTGATC | 0.00181 |
| TAACCGAA | 0.115 |
| CGCTGATC | -0.159 |
| AAATCCGA | -0.0221 |
| CGTGGTAG | -0.0382 |
| GTGACCTA | 0.082 |
| AGCTCAGG | -0.114 |
| AGTTTTGG | 0.0121 |
| CCCCATAC | 0.00082 |
| CCTTGTAC | 0.272 |
| AAGCCGGC | -0.226 |
| AGCGTATA | 0.0388 |
| ATATACTC | -0.0816 |
| CACTATAA | 0.103 |
| CATCCAGG | -0.0983 |
| GGAACCAC | 0.0546 |
| ACGCAGCT | 0.0925 |
| AGCAATTG | 0.0402 |
| CCAAGGTC | -0.222 |
| GCGGTCTA | 0.155 |
| CCCTGAAG | -0.248 |
| GACTTGAA | -0.135 |
| TAATGTAA | 0.354 |

| Sequence | PBM E-score |
| --- | --- |
| AGCAGCCA | -0.121 |
| AGAAACCC | 0.0651 |
| AGTCACCG | 0.0455 |
| CAAGAAAA | 0.132 |
| CAATGGAG | -0.116 |
| TACCCGCA | -0.0947 |
| AGAAAGCC | 0.0698 |
| CGTTCTAC | 0.21 |
| ACCCGCGG | -0.0296 |
| CTCTCCTC | -0.284 |
| GCTTACAA | 0.197 |
| AGCCTCGA | -0.0725 |
| AAAGGGAT | 0.0327 |
| GATCGATC | -0.216 |
| CACTCGAG | -0.185 |
| GATGTGAC | -0.0219 |
| CCTCCTCC | 0.0258 |
| CCTGGAGA | -0.0102 |
| GACATGGA | 0.167 |
| CGGTGGAC | -0.174 |
| ATGTACCA | 0.04 |
| GCCAGCCA | -0.257 |
| CAACTACA | 0.282 |
| CCCTGGGA | -0.335 |
| ATTACCAA | 0.239 |

| Sequence | PBM E-score |
| --- | --- |
| CCGCTACA | 0.0172 |
| AACATGCC | 0.328 |
| GCAAGTCC | -0.0926 |
| CTTAGTGA | -0.151 |
| AGACCATA | -0.0935 |
| CGAGCCGA | -0.187 |
| ATGACTCC | -0.199 |
| CTCGGGCA | 0.0219 |
| GGTACCCA | 0.00798 |
| AAGGGCCG | -0.111 |
| CCAGGAGG | -0.129 |
| CAGGCCAG | -0.141 |
| GATGGTTA | -0.00133 |
| CAGACAAG | -0.125 |
| AAATCGAA | -0.103 |
| ATCCGAGG | -0.0907 |
| AGGTTGCA | 0.159 |
| ATTAGAAG | -0.118 |
| CAACAGAA | -0.0102 |
| CATGTCAC | 0.225 |
| ATACTGAG | 0.0691 |
| TCCCCCGA | -0.341 |
| AAAGGTAC | 0.42 |
| AATCGATG | 0.15 |
| CCAAAATA | 0.0955 |

| Sequence | PBM E-score |
| --- | --- |
| ATGCGAAG | -0.00373 |
| GAAAATAC | -0.0197 |
| CGCCGAGC | -0.194 |
| CCTTGTGC | 0.117 |
| GAGGTTAC | 0.114 |
| TGCCCCAA | -0.0519 |
| CGTAGACA | 0.0145 |
| ATTCAGCA | 0.00103 |
| GGAGCCCC | -0.158 |
| CAAAGAGC | -0.172 |
| CTTTTCAA | 0.0982 |
| CTGGTGGA | -0.0967 |
| GGCGCCCA | -0.109 |
| CCGTAAAG | 0.041 |
| AAATCATG | 0.192 |
| AAAGGGAA | 0.0778 |
| CTAAATGC | -0.101 |
| GGGGGAAA | -0.3 |
| CGGGGTTC | -0.305 |
